Hit rate of the full screen: of about 310,000 compounds, about 2,200 (0.71%) showed an effect of 50% or more. The effect is printed as a negative number. Some of the results follow.
Target: human ether-à-go-go-related gene (hERG) potassium channel (human, UniProt Q12809)
Assay: primary screen, population patch clamp on CHO cells stably expressing hERG

Sequence of human ether-à-go-go-related gene (hERG) potassium channel (Q12809 whole entry, looked up): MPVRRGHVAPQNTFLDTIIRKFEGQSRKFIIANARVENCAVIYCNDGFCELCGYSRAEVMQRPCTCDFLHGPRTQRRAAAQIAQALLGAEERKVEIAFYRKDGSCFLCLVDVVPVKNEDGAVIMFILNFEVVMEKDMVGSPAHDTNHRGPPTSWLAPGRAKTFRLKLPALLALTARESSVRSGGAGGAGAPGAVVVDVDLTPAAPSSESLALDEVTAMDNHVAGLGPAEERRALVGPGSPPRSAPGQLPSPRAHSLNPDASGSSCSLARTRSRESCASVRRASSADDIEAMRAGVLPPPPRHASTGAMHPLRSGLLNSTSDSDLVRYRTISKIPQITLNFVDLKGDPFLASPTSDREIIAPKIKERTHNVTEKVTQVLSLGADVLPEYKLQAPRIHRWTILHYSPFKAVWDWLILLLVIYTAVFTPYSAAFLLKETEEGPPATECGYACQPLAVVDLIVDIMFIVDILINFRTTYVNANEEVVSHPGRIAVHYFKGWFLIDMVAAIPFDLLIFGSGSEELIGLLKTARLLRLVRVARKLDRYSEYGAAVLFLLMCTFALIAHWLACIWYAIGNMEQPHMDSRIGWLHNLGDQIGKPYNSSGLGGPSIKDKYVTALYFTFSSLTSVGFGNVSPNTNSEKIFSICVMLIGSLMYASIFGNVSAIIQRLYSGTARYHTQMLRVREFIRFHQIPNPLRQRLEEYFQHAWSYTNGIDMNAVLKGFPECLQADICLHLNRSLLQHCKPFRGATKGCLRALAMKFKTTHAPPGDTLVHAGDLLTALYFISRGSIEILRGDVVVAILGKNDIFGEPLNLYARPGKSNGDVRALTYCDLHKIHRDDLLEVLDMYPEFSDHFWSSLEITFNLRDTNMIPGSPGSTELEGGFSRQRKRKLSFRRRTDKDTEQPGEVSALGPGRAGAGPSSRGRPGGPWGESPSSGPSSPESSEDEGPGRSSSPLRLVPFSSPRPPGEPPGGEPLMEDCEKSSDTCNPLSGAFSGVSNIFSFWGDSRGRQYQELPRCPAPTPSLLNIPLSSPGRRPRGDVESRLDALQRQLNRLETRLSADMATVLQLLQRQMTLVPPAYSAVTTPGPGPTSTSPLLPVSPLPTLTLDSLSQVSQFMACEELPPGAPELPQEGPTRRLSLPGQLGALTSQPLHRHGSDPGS

Compound | hERG current change (%, negative = inhibition) at 1uM [%]
COc1ccccc1N1CCN(/N=C/c2cc(OC)c(OC(C)=O)c(OC)c2)CC1 | 25.8
Cc1cccc(Nc2nc(N)nc(CCl)n2)c1C | 12.4
CC(C)Cc1nnc(NC(=O)CCC(=O)NCCc2ccc(Cl)cc2)s1 | 24.7
O=C(Cn1cnc2c(nnn2Cc2ccc(F)cc2)c1=O)N1CCN(c2ccccc2)CC1 | 1.91
Cc1cccc(CN2CCN(C3CCCC3)C(CCO)C2)n1 (stereo not shown) | 5.32
CCOC(=O)CSc1cc(CS(C)(=O)=O)nc(-c2ccccn2)n1 | -8.53
CCC(=O)Nc1nc2c(OC)ccc(OC)c2s1 | 19
CC(C)(C)OC(=O)NCCCCCNC(=O)c1[nH]cnc1C(=O)Nc1ccon1 | 6.28
CC(=O)c1nnn(-c2nc(N3CCCC3)nc(N(c3ccccc3)c3ccccc3)n2)c1C | 7.81
O=C1CSC(=S)N1 | 25.7
CCN(CC)C(=O)c1nc[nH]c1C(=O)N1CCc2ccccc2C1 | 17.1
C=CCSc1nc2c(c(=O)[nH]c(=O)n2C)n1Cc1ccc(C)cc1 | 14.8
O=C1N/C(=C\c2ccccc2)C(O)=C1C=NCc1ccccc1 | 8.7
OCCC1CN(Cc2ccccc2-c2ccco2)CCN1Cc1ccsc1 (stereo not shown) | 2
CC(C(=O)Nc1ccccc1C(F)(F)F)N1CCN(C)CC1.O=C(O)C(=O)O (stereo not shown) | 12.4
CN1C(=O)C(O)(CC(=O)c2cccnc2)c2ccccc21 (stereo not shown) | 15.2
CCOC(=O)C1(Cc2cccc(OC)c2)CCN(Cc2ccccc2OC)CC1 | -18.5
COc1ccc(S(=O)(=O)N2CCCCCC2)cc1C(=O)NCCOc1ccc(C)cc1 | -5.43
Cn1c(C(=O)NN)cc2cc(Oc3ccccc3)ccc21 | 6.19
N#Cc1c(N2CCCC(O)C2)nc(N)c2c(N)nc3c(c12)CC(=O)N3C12CC3CC(CC(C3)C1)C2 (stereo not shown) | 8.76
CCn1c(SCC(=O)OCc2ccccc2)nnc1-c1ccco1 | 14.4
CC(OC(=O)c1cccc(S(=O)(=O)N2CCN(C)CC2)c1)C(=O)Nc1ccc(C(N)=O)cc1 (stereo not shown) | 5.38
CCOC(=O)C1[C@H]2C(=O)N(CCCOC)C[C@]23C=C[C@H]1O3 (stereo partly shown) | 8.46
Cc1ccc(S(=O)(=O)NCCS(=O)(=O)N2CCN(c3ccccc3)CC2)cc1 | 9.29
O=c1c(OC2OC(CO)C(O)C(O)C2OC2OC(CO)C(O)C(O)C2O)c(-c2ccc(O)cc2)oc2cc(O)cc(O)c12 (stereo not shown) | 10.8
CCN(CC(=O)NCc1ccc(F)cc1)CC(=O)Nc1cc(S(=O)(=O)N(C)C)ccc1C | -45.8
O=[N+]([O-])c1cccc(S(=O)(=O)Nc2ccc(S(=O)(=O)N3CCCC3)cc2)c1 | 12.5
NC(=O)c1ccc(NC(=O)Cn2c(=O)n(-c3ccccc3)c(=O)c3oc4ccccc4c32)cc1 | 16.8

Compound | hERG current change (%, negative = inhibition) at 1uM [%]
NC(=O)c1nn(-c2ccc(Cl)cc2Cl)c(=O)cc1O | 10.9
Nc1nc(SCCO)[nH]c(=O)c1NC(=O)c1ccccc1F | 15.9
CCN(CC)S(=O)(=O)c1ccc(C(=O)NCC(c2cccs2)N2CCOCC2)cc1.Cl (stereo not shown) | 0.735
CC(C)CC(=O)Nc1ccc(C(=O)CN2CCN(c3ccc(O)cc3)CC2)cc1 | 8.56
O=S(=O)(Nc1ccc(Br)cc1)c1cccc2nonc12 | -0.755
CC(=O)N1CCCc2cc(S(=O)(=O)N3CCCC(C(=O)N4CCN(c5cc(C)ccc5C)CC4)C3)ccc21 (stereo not shown) | 8.99
O=C(NCCN1CCOCC1)C(=O)c1c[nH]c2ccccc12 | 14.4
O=C1c2cccc3c([N+](=O)[O-])c(O)cc(c23)C(=O)N1Nc1ccccc1 | 12.6
Cc1cc(C)nc(Sc2ncnc(N)c2[N+](=O)[O-])n1 | 12.6
Brc1cccc(OCCOCCn2ccnc2)c1.O=C(O)C(=O)O | -1.77
Cc1ccc(-c2nn3c(C)nnc3c3ccccc23)cc1S(=O)(=O)NC(C)(C)CO | 8.73
CCOc1ccc(NC(=O)C(C)N2C(=O)c3ccccc3C2=O)cc1 (stereo not shown) | 6.49
Cc1[nH]c2ccccc2c1CN1CCc2ccccc2C1 | 1.76
C/C(=N\Nc1ccc(Cl)c(C(=O)O)c1)c1cccc([N+](=O)[O-])c1 | 6.86
CN(C)C(=O)CSc1nnc(NC(=O)CCc2ccccc2)s1 | 5.15
Cc1cc(C)cc(N(C(=O)c2csnn2)C(C(=O)NC2CCCCC2)c2ccccn2)c1 (stereo not shown) | 11.5
CCC(Sc1nc(N)c(NC(=O)c2ccc(OC)c(OC)c2)c(=O)[nH]1)C(=O)OC (stereo not shown) | -5.41
OC(C#CCN1CCCCCC1)(c1ccccc1)c1cccnc1 (stereo not shown) | 10.8
Cc1ccc(S(=O)(=O)Nc2ncccn2)cc1 | 18.8
O=C(O)Cn1c(SCCOc2ccccc2F)nc2ccccc21 | 8.37
COC(=O)c1ccc(S(=O)(=O)N2CCC(C(N)=O)CC2)n1C | 8.39
COc1ccc(Cl)cc1NC(=O)CN1C(=O)CSC1=O | 11.4
COc1cccc(N(C(=O)C2CSC(=O)C2)C(C(=O)NC(C)(C)C)c2ccncc2)c1 (stereo not shown) | 32.9
O=C(CSCc1ccc(F)cc1)N1CCN(c2ccc(F)cc2)CC1 | -19.8
Cc1[nH]c2ccccc2c1C(=O)C(=O)N1CCCc2ccccc21 | 1.95
CC(=O)N1CCc2cc(C(=O)CN3CCCCC3)ccc21 | 15.1
O=C(NC1CCCC1)C(c1ccsc1)N(C(=O)Cc1cccs1)c1cccc(F)c1 (stereo not shown) | 19.3

Reference: publication PMC4336329 (PLoS ONE, 2015)
